Test results taken from PubChem BioAssay AID488969 (Vanderbilt High Throughput Screening Facility, 2010).
Whole data set: some 110,000 compounds, median “z-score” near -0.1, cut for the highest 2% near 2. The list shows a part of the results.

molecular target: Metabotropic glutamate receptor 8 (Rattus norvegicus) (UniProt P70579); experiment: mGluR8 Gi/Go-coupled signaling modulation – cell-based, rat, thallium flux, HTS, primary screen (AID 488969); details: HEK293 rat mGluR8, GIRK (G protein-gated inwardly rectifying potassium channel) thallium flux, FluoZin2; at 10 µM; stronger effect = higher value; submaximal glutamate (EC20) added with thallium
Chain of UniProt P70579 (P70579 whole entry, looked up): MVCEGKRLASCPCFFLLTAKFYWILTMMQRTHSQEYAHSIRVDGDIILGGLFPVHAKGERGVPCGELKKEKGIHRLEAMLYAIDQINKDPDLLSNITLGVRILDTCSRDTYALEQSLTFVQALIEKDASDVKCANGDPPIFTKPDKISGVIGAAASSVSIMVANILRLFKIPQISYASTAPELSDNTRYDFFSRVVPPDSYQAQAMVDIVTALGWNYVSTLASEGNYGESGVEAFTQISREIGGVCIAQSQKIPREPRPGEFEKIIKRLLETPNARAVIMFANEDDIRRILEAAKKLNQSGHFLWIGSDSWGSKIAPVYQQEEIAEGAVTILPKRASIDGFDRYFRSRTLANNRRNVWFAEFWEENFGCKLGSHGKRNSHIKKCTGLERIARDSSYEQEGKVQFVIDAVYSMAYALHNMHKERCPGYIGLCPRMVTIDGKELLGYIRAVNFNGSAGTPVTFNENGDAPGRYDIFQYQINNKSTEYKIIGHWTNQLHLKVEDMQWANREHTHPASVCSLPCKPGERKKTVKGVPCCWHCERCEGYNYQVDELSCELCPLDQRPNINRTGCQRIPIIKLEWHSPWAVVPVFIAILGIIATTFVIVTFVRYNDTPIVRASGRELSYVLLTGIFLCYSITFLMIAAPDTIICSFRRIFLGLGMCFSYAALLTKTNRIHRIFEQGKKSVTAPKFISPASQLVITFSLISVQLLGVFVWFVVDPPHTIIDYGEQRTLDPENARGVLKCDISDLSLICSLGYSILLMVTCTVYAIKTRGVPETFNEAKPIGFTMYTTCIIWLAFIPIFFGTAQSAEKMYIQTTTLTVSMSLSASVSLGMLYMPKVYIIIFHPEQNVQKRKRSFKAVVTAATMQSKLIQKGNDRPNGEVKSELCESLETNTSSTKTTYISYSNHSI

SMILES | z-score
CCOc1ccc(CN2CCN(C(=O)c3cccc(F)c3)CC2)cc1 | -0.844
Cc1cc(C)c(C)c(S(=O)(=O)Nc2ccc(O)cc2)c1C | -0.118
O=C(Nc1ccc(S(=O)(=O)Nc2nccs2)cc1)c1ccc(S(=O)(=O)N2CCOCC2)cc1 | -0.0129
CCCCC(=O)NC1(C(F)(F)F)C(=O)N(Cc2ccco2)C(C)=C1C(=O)OC (stereo not given) | 0.354
CCc1c(C#N)c(SCCC(=O)Nc2ccc(OC)cc2)nc2c1C(=O)CC(C)(C)C2 | -0.459
O=C(CCNS(=O)(=O)c1cccc2nonc12)N1CCN(c2cccc(Cl)c2)CC1 | -0.246
NC(=O)c1cc(Cl)cn(-c2ccccc2)c1=O | 0.589
O=c1oc2cc(O)ccc2c2c1CCCC2 | 0.0309
Cc1ccc(NC(=O)NCCc2ccc(S(N)(=O)=O)cc2)cc1 | -0.0199
CC1CCCC(=C\c2ccccc2)/C1=N/O (stereo not given) | -0.283
COc1cc(C)ccc1OCCOc1c(Cl)cc(Cl)cc1Cl | -0.136
CCCCNc1nc(=S)[nH]c2cc(OC)c(OC)cc12 | 0.479
Cc1nn(C)c(C)c1CN(C)C(=O)CCCC(=O)O | -0.186
Cc1cc(=O)[nH]c2c1cnn2Cc1ccccc1 | -0.424
Cc1ccc(C(=O)NNC(=O)CSc2nnc3c(n2)[nH]c2ccc(F)cc23)cc1 | -0.118
O=C(/C=C/c1ccc(Br)cc1)c1ccc(NC(=O)c2ccco2)cc1 | -0.379
CCOC(=O)Cn1nc(-c2ccccc2)c2ccccc2c1=O | -0.698
COc1cc([N+](=O)[O-])cc(/C=N/NC(=O)C(C)Nc2cccc3ccccc23)c1O (stereo not given) | -0.626
COc1ccc(OC)c(/C=N/NC(=O)CN2CCSCC2)c1 | 0.045
CCCC(C)NC(=O)c1ccc(OCc2ccc(Cl)cc2)c(OC)c1 (stereo not given) | -0.735
CCN(CC)S(=O)(=O)c1ccc(Cl)c(C(=O)Nc2cc(C)nn2-c2ccccc2)c1 | -1.22
Cc1ccc(C(=O)Nc2nc(-c3cccnc3)cs2)o1 | -0.0733
c1ccc(N/N=C(\Cc2nc3ccccc3[nH]2)c2ccccc2)cc1 | 0.00928
COc1cccc(NS(=O)(=O)c2ccc3[nH]cc(C(=O)NCCCOC(C)C)c(=O)c3c2)c1 | -0.213
CCOc1cc(C(N)=O)cc(Br)c1OC | -0.42
CC(C)C1N(c2ccccc2)C(N)=C(C#N)C1(C#N)C#N (stereo not given) | -0.0335
CCOc1cccc(C2C(C(=O)c3ccco3)=C(O)C(=O)N2Cc2ccncc2)c1 (stereo not given) | -0.856
O=c1cc(CN2CCN(S(=O)(=O)c3ccc4c(c3)OCCO4)CC2)c2ccc(O)cc2o1 | 0.312
CC1(C)Cc2c(c(N3CCCC3)nc3sc4c(N5CCN(CCO)CC5)ncnc4c23)CO1 | 0.293
COC(=O)c1sc(S(=O)(=O)N2CCC(C)CC2)c(C(=O)OC)c1C | -0.262
